# Assay results: patent US7300770B2, “Detection of microbe contamination on elastomeric articles” (Kimberly-Clark Worldwide, Inc., priority 2004, dated 2007)
# Experiments:
# [1] = system: budgie feces suspension; test: N-methyl merocyanine coated towel exposed to budgerigar feces suspension; details: budgie feces suspension in tap water
# From the text: Budgerigar feces was collected from a caged pet budgie, and shaken in approximately 10 milliliters of Atlanta city domestic tap water.
# [2] = system: aged urine (approximately 1x10^5 CFU/milliliters); test: N-methyl merocyanine coated towel exposed to aged female human urine
# [3] = system: aged raw chicken juice; test: Dye spray on aged raw chicken juice pattern and re-colorization with 1 N NaOH; details: hot plate surface, 160 mg/10 mL acetonitrile spray
Structure (SMILES),Color change of coated towel [1],Color change of coated towel [2],Color change on aged raw chicken juice pattern [3]
COc1cc(/C=C/c2cc[n+](C)cc2)ccc1[O-] [N-methyl merocyanine dye],immediate color change from deep orange to pale yellow,immediate color change from deep orange to pale yellow,
"[O-]c1c(-c2ccccc2)cc(-[n+]2c(-c3ccccc3)cc(-c3ccccc3)cc2-c2ccccc2)cc1-c1ccccc1 [Reichardt's dye, 4-(2,4,6-triphenylpyridinium-1-yl)-2,6-diphenylphenolate]",,,color change of the dye in the exact form of the pattern of chicken juice
